# According to PubChem BioAssay AID588855 (National Center for Advancing Translational Sciences (NCATS), 2011):
# The whole screen tested about 410,000 compounds, of which about 5,000 (1.2%) were called active. The shares of active, inactive and inconclusive entries below differ from those in the screen. The call rests on the fitted dose curve; in most records, active means well fitted inhibition curve with a large enough effect; inconclusive means small, poorly fitted or top-dose-only effect; inactive means no such curve, though single readings can be large or run the other way. Where the call is inconclusive, the potency comes from a doubtful curve fit.
# Experiment: qHTS for Inhibitors of TGF-b; further: nearly all actives have a fitted effect of over 65% in size
# Details: HepG2 CAGA-GFP TGF-b/SMAD3 reporter, GFP fluorescence, 18 h, TGF-beta stimulated, 500 pg/mL final; series mostly up to 46.1 µM
# Method in brief: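 Inhibition of TGF-beta-driven CAGA-GFP reporter expression in HEPG2 cells is measured by cellular GFP fluorescence after 18 h stimulation with 500 pg/mL recombinant TGF-beta in 1% FBS medium at 37 degrees C.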
# Potency means the concentration at half of the fitted maximal effect; tags describe the fitted curve by direction and shape.
row,Structure (SMILES),Potency
1,Cc1cccc(-c2noc(-c3ccc(NC4CCCC4)c([N+](=O)[O-])c3)n2)c1,"inconclusive: 0.708 µM [inhibitor, partial curve, poor fit]"
2,CN1CCC=C(C(=O)N2c3ccccc3Sc3ccc(Cl)cc32)C1,"inconclusive: 17.8 µM [inhibitor, single point]"
3,Cc1ccc(OCC(=O)Nc2cccc(C(=O)OCc3cc(=O)n4cc(C)sc4n3)c2)cc1,"inconclusive: 6.31 µM [inhibitor, single point]"
4,CC(C)c1ccc(C2(O)C(=O)Nc3cc(Br)ccc32)c(O)c1 (configuration not stated),"inconclusive: 35.5 µM [inhibitor, single point]"
5,Cc1cc(C)cc(OCC(=O)Nc2ccc(-c3nc4ncccc4o3)cc2C)c1,"inconclusive: 0.708 µM [inhibitor, full curve, poor fit]"
6,O=C(Nc1nccs1)c1ccc(COc2ccccc2Br)o1,"inconclusive: 15.8 µM [inhibitor, single point]"
7,C=CCc1c(C)nc(C)nc1N/N=C/c1ccc([N+](=O)[O-])cc1,inactive
8,Cc1ccc(S(=O)(=O)N2CCC(=O)N(C(COCc3ccc(C(F)(F)F)cc3)C(C)C)CC2)cc1 (configuration not stated),"inconclusive: 11.2 µM [inhibitor, partial curve, poor fit]"
9,O=S(=O)(c1cccs1)N1CN(Cc2ccco2)c2nc3ccccc3nc21,inactive
10,Cc1ccc(Cl)cc1N1CCN(C(=O)c2c(C)oc3ncnc(N4CCOCC4)c23)CC1,"inconclusive: 35.5 µM [inhibitor, single point]"
11,Cc1ccc(C(=O)Nc2nnc(SCc3cc(=O)c4c(C)ccc(C)c4[nH]3)s2)cc1,"inconclusive: 12.6 µM [inhibitor, single point]"
12,O=C(C1COc2ccccc2O1)N(Cc1cccnc1)c1nc2c(F)cc(F)cc2s1 (configuration not stated),inactive
13,O=C(Oc1ccc(N(C(=O)c2ccncc2)S(=O)(=O)c2cccs2)cc1)c1ccncc1,inactive
14,CCC(C)(C)NC(=O)C(c1ccncc1)N(C(=O)Cn1nnc2ccccc21)c1cc2c(cc1C(C)=O)OCO2 (configuration not stated),"inconclusive: 3.98 µM [inhibitor, single point]"
15,CCc1ccc(C(C(=O)NCc2ccc(OC)cc2)N(CCOC)C(=O)Cc2cccs2)cc1 (configuration not stated),"inconclusive: 35.5 µM [inhibitor, single point]"
16,COc1cccc(C(=O)N2CCC(c3nc4ccccc4s3)CC2)c1,"inconclusive: 15.8 µM [inhibitor, single point]"
17,Cc1ccc(NC(=O)c2cccc(OCc3c(C)noc3C)c2)cc1S(=O)(=O)Nc1ccccc1Cl,"inconclusive: 35.5 µM [inhibitor, single point]"
